Measured values: the antibiotic and cytotoxicity screens of Wong et al. (2023)
The other results are listed elsewhere or left out.

What follows are molecules tested on HSkMC (human skeletal muscle cells) (assay: cytotoxicity call (relative viability < 0.9)). Settings: 10 µM.

Compound | cytotoxicity call
CN1CCN(C(=O)[C@@H]2[C@@H](CO)[C@@H]3Cn4c(ccc(C5=CCCC5)c4=O)[C@H]2N3S(C)(=O)=O)CC1 | inactive
C[C@@H]1CN([C@H](C)CO)C(=O)Cc2cc(NC(=O)Nc3ccc4c(c3)OCO4)ccc2O[C@@H]1CN(C)Cc1ccc(C(F)(F)F)cc1 | active
C[C@@H]1CN([C@@H](C)CO)C(=O)c2ccccc2-c2ccccc2CO[C@@H]1CN(C)C(=O)N[C@H](C)c1ccccc1 | inactive
O=C1C=CC(=O)N1 | active
O=C(C[C@@H]1CC=CC[C@H](NC(=O)OCC2c3ccccc3-c3ccccc32)C(=O)O[C@H](c2ccccc2)CNC1=O)N[C@@H](CO)Cc1ccccc1 | active
COc1ccc(CN(C)C[C@H]2Oc3ccc(NS(=O)(=O)c4cn(C)cn4)cc3CC(=O)N([C@H](C)CO)C[C@H]2C)cc1 | inactive
COc1ccccc1-c1cnc2c(c1)C(=O)N([C@H](C)CO)C[C@H](C)[C@@H](CN(C)C(=O)c1cccnc1)O2 | inactive
C[C@H]1CN([C@@H](C)CO)C(=O)Cc2cc(NC(=O)CCC(F)(F)F)ccc2O[C@@H]1CN(C)Cc1ccc(Oc2ccccc2)cc1 | inactive
CC(C)NC(=O)Nc1ccc2c(c1)C(=O)N([C@H](C)CO)C[C@H](C)[C@@H](CN(C)S(=O)(=O)c1cn(C)cn1)OCCCC[C@@H](C)O2 | inactive
CC(C)CC#Cc1cnc2c(c1)C(=O)N([C@H](C)CO)C[C@@H](C)[C@@H](CN(C)S(=O)(=O)c1ccccc1)O2 | inactive
C[C@@H]1CCCCO[C@H](CN(C)CC2CCCCC2)[C@H](C)CN([C@H](C)CO)C(=O)c2cc(NS(=O)(=O)c3ccc(Cl)cc3)ccc2O1 | inactive
C[C@@H]1CN([C@@H](C)CO)C(=O)c2cc(NC(=O)Cc3ccccc3)ccc2O[C@@H](C)CCCCO[C@@H]1CN(C)C(=O)Nc1ccc2c(c1)OCO2 | inactive
C[C@@H]1CCCCO[C@@H](CN(C)C(=O)Nc2ccccc2)[C@H](C)CN([C@@H](C)CO)C(=O)c2cc(NC(=O)C3CCCCC3)ccc2O1 | inactive
C[C@H](CO)N1C[C@H](C)[C@@H](CN(C)S(=O)(=O)c2ccc(Oc3ccccc3)cc2)OCc2cnnn2CCCC1=O | inactive
C[C@H]1CN([C@@H](C)CO)C(=O)c2cc(C#CC3(O)CCCC3)cnc2O[C@H]1CN(C)S(=O)(=O)c1ccc(F)cc1 | inactive
C[C@H](CO)N1C[C@H](C)[C@@H](CN(C)C(=O)Nc2cccc(Oc3ccccn3)c2)OCc2cn(nn2)CCCC1=O | inactive
C[C@@H]1CN([C@@H](C)CO)C(=O)c2cc(NC(=O)Nc3ccc(F)cc3)ccc2O[C@@H]1CN(C)Cc1ccc(Cl)c(Cl)c1 | active
C[C@H](CO)N1C[C@H](C)[C@H](CN(C)C(=O)CCCN(C)C)OCCCC[C@H](C)Oc2ccc(NC(=O)Nc3ccc(F)cc3)cc2C1=O | inactive
C[C@@H]1CCCCO[C@H](CN(C)Cc2ccccc2)[C@H](C)CN([C@H](C)CO)C(=O)c2cc(NC(=O)CCC(F)(F)F)ccc2O1 | inactive
C[C@H]1CN([C@@H](C)CO)C(=O)c2cc(NS(=O)(=O)c3ccc(Cl)cc3)ccc2O[C@H]1CN(C)S(=O)(=O)c1cn(C)cn1 | inactive
CNC(=O)N1CCN(Cc2cnn(C)c2)C[C@]2(CCCC(=O)N2)C1 | inactive
CNC(=O)C[C@@H]1CC[C@H]2[C@@H](COC[C@@H](O)CN2C(=O)c2ccccn2)O1 | inactive
C[C@@H]1CN([C@H](C)CO)C(=O)CCCn2cc(nn2)CO[C@@H]1CN(C)S(=O)(=O)c1ccc2ccccc2c1 | inactive
COC(=O)CCCCCCC(=O)N/N=C/[C@H](O)[C@@H](O)[C@@H](O)[C@H](O)C(=O)O | inactive
C[C@H](CO)N1C[C@H](C)[C@H](CN(C)Cc2ccc(Oc3ccccc3)cc2)Oc2c(NS(=O)(=O)c3ccc(F)cc3)cccc2C1=O | inactive
O=c1c(-c2ccc(O)cc2)coc2cc(O)ccc12 | inactive
C[C@@H]1CCCCO[C@H](CN(C)Cc2ccncc2)[C@H](C)CN([C@@H](C)CO)C(=O)c2cc(NC(=O)NC3CCCCC3)ccc2O1 | inactive
CO[C@@H](CN(C)C(=O)c1ccccc1F)[C@@H](C)CN([C@@H](C)CO)S(=O)(=O)c1ccc(Cl)cc1 | inactive
CC[C@@H]1OC[C@@H]2CN(C(=O)CN(C)C)CC[C@H]21 | inactive
COc1ccc(S(=O)(=O)Nc2ccc3c(c2)C(=O)N([C@H](C)CO)C[C@H](C)[C@H](CN(C)C(=O)Nc2cccc4ccccc24)O3)cc1 | inactive
